Reference: the supplement of paper PMC10986608
This is one part of the list. Many values rest on one well or one pass, so single values are uncertain.

These compounds were tested on Candida albicans DPL-15 (assay: growth (OD600) after compound treatment (apparently relative to screen median) (relative growth (fraction; screen median 1.02)); DPL-15 is a caspofungin-resistant clinical isolate; higher = more fungal growth (less antifungal activity)). Details: 25 µM; RPMI 1640; 48 h; 30 °C.
CC(C)Cc1n[nH]c2c1C(c1cccc(C(F)(F)F)c1)N(c1ccccc1)C2=O (centres undefined) gave a growth of 0.896.
Work on COC(=O)C1=C(C)N(Cc2ccc(F)cc2)C(=S)NC1c1ccc(F)cc1 (centres undefined) yielded a growth of 0.978.
CC(C)(C)NS(=O)(=O)OCCCCc1ccccc1 showed a growth of 1.06.
Work on COc1ccc(N2C(=O)c3c(c(-c4ccccc4)nn3C)C2c2ccc(C)cc2)cc1 (centres undefined) yielded a growth of 0.917.
COC(=O)Cc1nnn2c1[C@@H](C)[C@@H](c1ccccc1Br)OC[C@@H]2c1ccccc1 gave a growth of 1.05.
COC(=O)C1=C(C)N(CC(C)C)C(=S)NC1c1ccccc1 (centres undefined) was tested, and the growth was 0.985.
COC(=O)Cc1nnn2c1[C@H](C)[C@@H](OC)c1cc(Br)ccc1-2 gave a growth of 1.05.
With C=C(C)CC1=C(Br)CCC1=O the growth was 1.13.
O=C1C(Nc2ccccc2)=CC(c2ccc(C(F)(F)F)cc2)N1c1ccc(F)cc1 (centres undefined) was tested, and the growth was 1.02.
With CC(=O)OC[C@H]1O[C@H](c2ccc(C(C)=O)cc2)C=C[C@H]1OC(C)=O the growth was 1.06.
With COC(=O)C1=C(C)NC(=O)NC1c1ccccc1 (centres undefined) the growth was 0.869.
Work on C#CCOC[C@@H](NC(=O)[C@@H]1C[C@@H](O)CN1C(=O)OCC1c2ccccc2-c2ccccc21)c1ccccc1 yielded a growth of 1.09.
With COc1ccc(S(=O)(=O)N2CCCc3nc(C)c(C)cc32)cc1 the growth was 0.966.
For CC1Cc2nc(-c3ccccc3)c(-c3ccccc3)cc2CN1Cc1ccccc1 (centres undefined), the growth was 1.53.
Compound C(#Cc1c(-c2ccccc2)nnn1Cc1ccccc1)c1ccccc1 has a growth of 1.09.
CC(=O)N[C@H]1CCN(C(=O)c2c(O)cc(O)cc2Nc2ccnn2C)C1 gave a growth of 1.09.
Compound CC(=O)[C@H]1[C@H](CCc2ccccc2)NC(=O)N(Cc2ccccc2)[C@@H]1C has a growth of 0.94.
In the case of CC1=NCCNC2=C1C(c1ccc(Br)cc1)NC2=O (centres undefined), the growth is reported as 1.02.
With Cc1ccc(S(=O)(=O)N/N=C/c2cccc(C(=O)NCC(O)C(=O)O)c2)cc1 (centres undefined) the growth was 1.24.
CC[C@@H](O)COc1cc2c(cc1C1(c3cc4c(cc3OC[C@H](O)CC)OCO4)C(=O)Nc3ccc(F)cc31)OCO2 gave a growth of 0.982.
Work on CN1C(=O)[C@@]2(O[C@H]3[C@@H]4C=C[C@@H]([C@H]5C(=O)N(Cc6ccccc6)C(=O)[C@@H]45)N3C3=C2C(=O)CC3)c2ccccc21 yielded a growth of 1.13.
Work on COc1cc2c(cc1OC)CS[C@@H]1C(=O)N(C)[C@H](SC2)C(=O)N1C yielded a growth of 1.06.
Work on COc1cc(-c2cc(OC)c(C)c(C=O)c2O)c(O)c(C=O)c1C yielded a growth of 1.07.
Compound Cc1ccc(C2C3=C(NCCN=C3CC(C)C)C(=O)N2c2ccccc2)cc1 (centres undefined) has a growth of 0.916.
For CC1=NCCNC2=C1C(c1ccccc1)NC2=O (centres undefined), the growth was 1.19.
Work on COC(=O)c1cc(OC)c(Cl)c(OC)c1 yielded a growth of 1.06.
Work on OCC1CCCN(CCc2ccccc2)C1 (centres undefined) yielded a growth of 1.22.
For O=C(O)c1cccc2c(=O)c3cccc(O)c3[nH]c12, the growth was 1.06.
For COc1cc([C@H]2c3c(OC)c(O)c4oc5c(C)cccc5c(=O)c4c3[C@@H]3C=C(C)CC(C)(C)[C@H]23)c2c(=O)c3cccc(C)c3oc2c1O, the growth was 1.08.
With CCOC(=O)c1nc(C(=O)OCC)c2[nH]c(SC)nc2c1C(=O)OCC the growth was 0.99.
In the case of COc1ccc(-c2ccc3c(n2)CCCN3S(=O)(=O)c2cccs2)cc1, the growth is reported as 0.9.
For CC1=C[C@H](COc2ccc(C(C)(C)C)cc2)O[C@]2(C1)C(=O)Nc1cc(F)ccc12, the growth was 0.971.
Work on COC(=O)C1=C(C)N(CCCOC(C)C)C(=S)NC1c1ccccc1 (centres undefined) yielded a growth of 1.09.
COC(=O)/C(Cc1cc(Br)c(OC)c(Br)c1)=N\O gave a growth of 1.08.
In the case of CC(=O)OC[C@H]1O[C@H](c2ccc(C(C)(C)C)cc2)C=C[C@@H]1OC(C)=O, the growth is reported as 0.864.
With COC(=O)c1cc2nc(/N=C/N(C)C)nc(O)c2nc1C(=O)OC the growth was 0.982.
For O=C1Nc2cccc(Br)c2[C@@]12O[C@H](COc1ccccc1)CC1=CCC[C@H]12, the growth was 0.997.
Work on CC(=O)C1=C(C)N(Cc2ccc(Cl)cc2)C(=S)NC1c1ccccc1 (centres undefined) yielded a growth of 0.955.
Cc1ccc(C2NC(=O)c3nn(-c4ccccc4)c(CC(C)C)c32)cc1 (centres undefined) gave a growth of 1.04.
In the case of COc1c(C)c(C)c(C(=O)O)c(OC/C=C/c2ccccc2)c1C, the growth is reported as 0.928.
For CC(C)(C)c1ccc(C#C[C@@H]2C=C[C@H]3OC(=O)CC/C=C/CCC(=O)OC[C@H]3O2)cc1, the growth was 1.1.
Work on COC(=O)[C@]1([C@@H]2CCC(=O)O2)CC(=O)c2c(O)c(Br)c(C)c(-c3c(C)c(Br)c(O)c4c3O[C@@](C(=O)OC)([C@@H]3CCC(=O)O3)CC4=O)c2O1 yielded a growth of 1.06.
Work on OC(COc1ccccc1)Cn1nnc(-c2ccccc2)c1C#Cc1ccccc1 (centres undefined) yielded a growth of 1.17.
COc1ccccc1Cn1nc2c(c1CC(C)C)C(c1ccc(F)cc1)NC2=O (centres undefined) gave a growth of 0.824.
With O=C1CC2(CCCCC2)CNC(=O)c2cccc(c2)-c2[nH]ncc2CCCCCCN1 the growth was 0.982.
COC(=O)C1=C(C)N(CC#C[Si](C)(C)C)C(=O)N(C(C)=O)C1c1ccccc1 (centres undefined) was tested, and the growth was 1.15.
Compound COCOC1CCC(=O)C(C(=O)OC)=C1I (centres undefined) has a growth of 0.984.
Compound CCCN1C(=S)NC(c2cccc(OC)c2)C(C(C)=O)=C1C (centres undefined) has a growth of 1.
In the case of COc1ccc([C@@H]2[C@@H](C(=O)NCC3CC3)[C@H](C(=O)NCC3CC3)[C@H]2c2ccc(OC)c(OC)c2)cc1OC, the growth is reported as 1.11.
COC(=O)[C@]1([C@H]2C=CC(=O)O2)CC(=O)c2c(O)cccc2O1 showed a growth of 1.04.
COC(=O)C1=C(C)N(CCCOC(C)C)C(NCC2CCCCC2)=NC1c1ccccc1 (centres undefined) gave a growth of 1.15.
COc1ccc(N2C(=O)C3=C(C(CC(C)C)=NCCN3C)C2c2ccc(F)cc2)cc1 (centres undefined) showed a growth of 1.01.
Cc1nnc(C)c2c1CCOC[C@@H](c1ccccc1)NC(=O)[C@@H]1C[C@@H](O)CN1C(=O)c1cccc-2n1 gave a growth of 1.03.
COc1ccccc1C1c2c(CC(C)C)n[nH]c2C(=O)N1c1ccc2c(c1)OCO2 (centres undefined) was tested, and the growth was 1.07.
For Nc1c(-c2ccccc2)cnc2c(-c3ccccc3)cnn12, the growth was 0.922.
COCCN1C(=O)c2[nH]nc(CC(C)C)c2C1c1ccc(F)cc1 (centres undefined) gave a growth of 0.977.
Work on CC(=O)OC[C@H]1O[C@H](c2ccc(Cl)cc2)C=C[C@@H]1OC(C)=O yielded a growth of 1.12.
Work on C#CCOCCOCCNC(=O)CC1(CNC(=O)c2cccc(/C=N/NS(=O)(=O)c3ccc(C)cc3)c2)CCCCC1 yielded a growth of 1.
CCN1C(=S)NC(c2ccc(OC)cc2)C(C(=O)OC)=C1C (centres undefined) gave a growth of 1.06.
CC(=O)C1=C2C=CCCN2C(=O)NC1c1cc(F)cc(Br)c1 (centres undefined) was tested, and the growth was 1.01.
Work on C=CCN1C(=O)C2=C(C(C)=NCCN2C)C1c1ccc(F)cc1 (centres undefined) yielded a growth of 1.09.
Work on CC(C)Cc1n[nH]c2c1C(c1ccsc1)N(c1ccc(C(C)(C)C)cc1)C2=O (centres undefined) yielded a growth of 0.847.
In the case of COc1ccc(OC)c(CNC(=O)C2=CCCN(CCc3ccccc3C)C2)c1, the growth is reported as 1.11.
O=C1NC2(Nc3ccccc31)C(=O)Nc1ccccc12 (centres undefined) was tested, and the growth was 1.09.
With COC(=O)C/C=C/[C@H](C)[C@@H](NC(=O)[C@H]1CCCN1C(=O)OC(C)(C)C)c1ccccc1 the growth was 1.05.
C[C@H]1/C=C/CC(=O)OCCCC(=O)N2CCC[C@@H]2C(=O)N[C@H]1c1ccc(Br)cc1 showed a growth of 0.985.
CC1=C[C@@H](COc2cccc(F)c2)O[C@@]2(C1)C(=O)N(Cc1ccccc1)c1ccccc12 gave a growth of 0.935.
For C=CC[C@@]12Oc3c(OC)cc(OC)cc3O[C@@]1(c1ccc(OC)cc1)[C@H](c1ccccc1)[C@@H](C(=O)OC)C2=O, the growth was 1.06.
Work on COCCN1Cc2cc(C(=O)OC)c3c(c2C1=O)c1ccccc1n3S(=O)(=O)c1ccc(OC)cc1 yielded a growth of 1.1.
With COCOc1cc(OC)cc(O)c1C(=O)/C=C/c1cccnc1 the growth was 1.12.
In the case of COC(=O)C/C=C/[C@H](C)[C@@H](NC(=O)CNC(=O)OC(C)(C)C)c1ccccc1, the growth is reported as 1.1.
COc1cccc(C2NC(=S)NC(C)=C2C(C)=O)c1 (centres undefined) gave a growth of 0.958.
COc1ccc2c(c1)C(Br)=C(CCCO)C2c1ccccc1 (centres undefined) showed a growth of 0.999.
C=CC[C@@]1(O)C=CC(=O)[C@H]2[C@@H]1[C@H]1c3ccccc3[C@]2([C@@H](C)OC)c2ccccc21 gave a growth of 1.18.
Work on CCc1cc2c(nc1CC)CCCN2S(=O)(=O)c1ccc(F)cc1 yielded a growth of 0.944.
With COC(=O)C1=C(C(=O)OC)[C@@H](c2ccccc2)O[C@H]1c1ccco1 the growth was 1.07.
CC1=C[C@H](COc2ccc(Br)cc2)O[C@]2(C1)C(=O)N(C)c1ccccc12 was tested, and the growth was 1.01.
In the case of CC(C)Cc1c2c(nn1Cc1ccccc1)C(=O)NC2c1ccc(Br)cc1 (centres undefined), the growth is reported as 1.02.
CCN1C(=S)NC(c2ccc(Cl)cc2)C(C(=O)OC)=C1C (centres undefined) gave a growth of 1.09.
With COc1ccc(Cn2nc(-c3ccccc3)cc2Nc2cc(O)cc(O)c2C(=O)N(C)Cc2ccncc2)cc1 the growth was 1.01.
In the case of O=C1NC(c2ccc(F)cc2)C2=C1NCCN=C2c1ccccc1 (centres undefined), the growth is reported as 1.08.
With O=C(c1c(O)cc(O)cc1Nc1ccnn1Cc1ccoc1)N1Cc2cccnc2C1 the growth was 1.04.
CC(C)(C)OC(=O)N(CCCc1ccccc1)S(=O)(=O)Nc1ccc(C(F)(F)F)cc1 gave a growth of 1.13.
CC(=O)C1=C(C)N(Cc2ccccc2)C(=S)NC1c1cccc(Cl)c1 (centres undefined) showed a growth of 0.899.
